Whole data set: some 33,000 sequences, median “E-score (-0.5 to 0.5)” near -0.036, cut for the highest 2% near 0.37. This is one part of the list.
Target: T1, Yer064c (UniProt P40041)
T1 sequence: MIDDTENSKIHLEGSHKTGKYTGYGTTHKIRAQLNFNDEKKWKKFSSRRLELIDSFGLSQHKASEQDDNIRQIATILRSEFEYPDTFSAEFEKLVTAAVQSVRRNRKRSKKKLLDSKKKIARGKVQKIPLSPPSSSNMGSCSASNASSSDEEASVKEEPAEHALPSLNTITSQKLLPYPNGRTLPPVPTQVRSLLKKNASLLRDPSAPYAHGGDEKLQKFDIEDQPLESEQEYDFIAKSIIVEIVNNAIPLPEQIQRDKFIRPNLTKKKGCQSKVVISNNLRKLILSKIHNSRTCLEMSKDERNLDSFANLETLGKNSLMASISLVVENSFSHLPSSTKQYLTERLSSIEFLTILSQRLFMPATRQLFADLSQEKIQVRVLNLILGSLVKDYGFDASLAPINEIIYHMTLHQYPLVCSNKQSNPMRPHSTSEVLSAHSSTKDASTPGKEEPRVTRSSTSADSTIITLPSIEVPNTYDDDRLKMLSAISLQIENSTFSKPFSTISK
Assay: PBM E-score (8-mer binding enrichment) (E-score (-0.5 to 0.5)); higher = stronger / more preferred TF binding; most listed sequences are background and not binding sites
Settings: protein concentration: 200 nM; construct: GST-full length
Method in brief: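 Each ungapped eight-base word and its reverse complement, pooled, received an E-score from the Universal PBM Analysis Suite. Underlying scans, normalised with masliner, recorded fluorescent anti-GST bound to GST-tagged yeast transcription factors. These were applied at about 100-200 nM to universal all-10-mer Agilent arrays double-stranded by primer extension.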

Sequence | PBM E-score
CATGTATA | 0.243
CGCCGGGA | -0.237
GCGCTCCC | -0.068
ATGTTTGA | 0.119
TCCTGGCA | -0.0985
ATGCTGTG | -0.055
ATAACGTA | -0.0408
CAGATCGC | -0.107
GGGTCACC | 0.117
ATATCCCC | -0.231
AGCGGGAG | -0.207
AGGGCTAC | -0.261
ATGGGTCC | 0.0288
AGCAGCTC | -0.304
CTTGGTCA | 0.119
GCACGCTA | -0.27
GCGGAAGA | -0.0456
CGCTCATC | 0.0112
ATTAGGTG | 0.152
ACAGCTAA | 0.0381
ACCTGGTA | -0.172
GAAAAGCC | -0.21
ATCATACA | 0.236
GAACAAGC | -0.357
ATCATTAG | 0.255

Sequence | PBM E-score
TATGGGCA | -0.217
CGCGTGTC | 0.23
GCGGCCCC | -0.242
TGTTTAAA | 0.0935
AGGTCAGG | -0.0683
ATCTGGAC | -0.0442
ATTTTAGC | 0.0115
GGATTTCA | -0.0555
CACCTGTC | 0.0814
AGCACTCC | -0.212
GGTATTCA | 0.0856
GTCTTATA | 0.189
ACAGGGCA | -0.128
CAGATAAG | 0.0282
GTCCCGCA | -0.148
GCGCTGCA | -0.0789
CTGGAACA | -0.0557
CGCGCTGC | -0.286
CCCGCTGC | -0.00295
AGTCACTC | 0.467
AGTTGATA | 0.0544
CTGAACAG | -0.0315
GACTCACA | 0.472
CTCGATCA | -0.0529
ACGCGAAA | -0.0513

Sequence | PBM E-score
ATCTAGTC | 0.352
CGTTATGA | -0.00798
AGCTAAAC | -0.111
CGTCCTCC | -0.354
AAACTTAC | -0.0145
AAAACTGT | -0.081
CTGACGAA | -0.0302
AGAGTCGA | 0.291
GCACTGCA | -0.0358
GACGCTAA | -0.0747
CCCCACCA | -0.128
ATGGGATC | -0.133
ACGGTCCC | -0.134
AGCAAACC | 0.00536
CGGTCACG | -0.137
GCCGGCTA | -0.195
TCCGATCA | 0.0392
GTCAGTGA | 0.31
ACGACGGC | -0.173
CACTACGG | -0.19
ACATATAT | -0.099
ACTTTGCC | -0.159
AGTGACGG | -0.0747
GTATATAA | 0.146
ATTGGACG | -0.309

Sequence | PBM E-score
AGAGAAAA | 0.101
ATTTCGGC | 0.0774
CCCTTTGC | -0.196
CAGCTGCC | -0.0456
AGTGTTTA | 0.0674
AGCCAAGA | -0.0541
AACTTAGC | -0.162
ACAATCCA | 0.0182
AGATAAAG | 0.0643
ACACGAGC | -0.0577
ATGACTCG | 0.491
ATTTAAAT | 0.256
GGATTGCC | -0.184
CAAGCATG | 0.0735
AATCGGGC | -0.0426
CAATTCAA | 0.0786
ACCTTAAT | -0.0665
CTAACGGC | 0.11
CATTCGCG | 0.0522
CGACGGGC | -0.0405
AATAAGGA | -0.246
ATTTAAAG | 0.212
AGTTGGCA | -0.118
ACTTCACT | 0.00441
GTGATAGA | -0.122

Sequence | PBM E-score
GCAATGAA | 0.0198
GCGGAAGC | -0.283
CTGGGACC | -0.309
CCGCGATC | -0.106
AACCATAG | 0.286
GGCAAGCA | -0.36
ACTGTGAC | 0.397
CTGCTCAA | -0.104
CATTCCAC | -0.0962
GGCTTAGA | -0.184
AACTCCAG | -0.14
CTTAGTTA | 0.221
ACAGTCGG | 0.181
ATCCAAGG | 0.0102
GGATGACA | -0.158
TAACACGA | 0.204
AGTCCTAA | 0.366
TGGACTAA | 0.348
AGCAAAAA | -0.0675
ACACACGT | -0.00017
CTTCCGTA | -0.158
ACGTAATC | 0.212
CAATGTCA | -0.00361
ACTATCGG | 0.139
TCACGGCA | 0.109

Sequence | PBM E-score
CCGAGGCG | -0.0738
AACCCCGG | -0.0921
ATGGATTC | 0.128
ACCCCTGA | 0.0766
ACTCTGTG | 0.182
CCACATCA | -0.0384
CTGTAACA | 0.0752
AAAAAAGT | 0.13
CGGTGCCC | -0.145
AATTGAGT | 0.345
AAGGTCAT | 0.199
GAATGGCC | -0.206
CTCCGGTC | -0.12
CATCGAGC | -0.176
CAGTCGTC | 0.232
CCTCCTGA | 0.116
CTACTTAA | 0.104
CATTCAAG | -0.029
GAGTATGC | 0.0529
CCTCCGTA | -0.0659
AGTCCTAG | 0.29
GGCTCACA | 0.13
GACACGTA | -0.0688
AAGGACCG | -0.246
AGCGTCTC | -0.281

Sequence | PBM E-score
CATGTCGG | 0.0567
CAGCGTAG | 0.13
ACTTGACC | -0.0272
ACCGTGAC | 0.205
AAAAATGG | -0.128
TCCATACA | -0.00517
CGTGGTAC | -0.0776
TATTTCCA | -0.235
AGGAGAGC | -0.261
CTATAGCA | 0.0361
AAGCGTTG | -0.0741
CGGAGCCC | -0.362
AGAAGACA | -0.13
ATACAGTA | 0.0168
CAGCCGCG | -0.0342
CCGGGCAG | -0.0961
AGACATAC | 0.17
AGAGGCAT | -0.122
CGGATTTA | 0.0553
CCAGCAAC | -0.192
GAATGTTA | -0.06
AGCGTCCG | -0.131

Source: the supplement of paper PMC3334620
